According to article PMC12136788:
The other results are listed elsewhere or left out.

T1: UNK ZnF1-3 (human, UniProt Q9C0B0 31-174)
T1 sequence: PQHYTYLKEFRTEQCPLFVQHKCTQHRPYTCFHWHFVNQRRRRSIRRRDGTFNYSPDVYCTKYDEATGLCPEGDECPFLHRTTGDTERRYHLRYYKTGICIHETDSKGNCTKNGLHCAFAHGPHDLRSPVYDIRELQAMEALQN

B1: 54649049_54654472_1799_CDS_ENSG00000039123_ENST00000230640|human|control|control (ssRNA)
RNA: GGGAGUUCUACAGUCCGACGAUCUACAAUUCCUCUAUCAUCCAUUCCUCUCCUUCCAGCACGACCAGACAUCUGAAUGUAUUCACCAGAAGAAAUCCAUCGGAAAUCCUUCCCAUCAAAUUUGCGGGCAUUUGUAAAUAAAACCAACAGAGGAUUGAGCAUCA
B2: 10814327_10814447_6042_3pUTR_ENSMUSG00000024294_ENSMUST00000052838|mouse|control|control (ssRNA)
RNA: GGGAGUUCUACAGUCCGACGAUCGCUGUCCAUACUAUACAUAACAUAAAUGGCCCAGUGACAAAGAGAAAGCUGUAAGUCCCCAGCACUACAGAGACUUGACGGCUUCUCUCUCCUAAGCUAGUGUGCUCUGCUCUGCGUGGACAACAGAGGAUUGAGCAUCA
B3: chr3:159597999:159598000:+_ENSMUSG00000028173_ENSMUST00000068952|mus_hu|FALSE|FALSE (ssRNA)
RNA: GGGAGUUCUACAGUCCGACGAUCAAGCAAGAAGUUAAAAAAGCUUUUCAGACCCGAAGGCCAUUUAAUACAGUAAAUCUUACUUGGGUAGUUUAGCAAACAUUUUUUAAAACCCACAUCCAACAGAUUGGUUAGUAUUAGAUACAACAGAGGAUUGAGCAUCA
B4: chrX:100668114:100668115:+_ENSG00000126945_ENST00000316594|hu_hu|motif|central (ssRNA)
RNA: GGGAGUUCUACAGUCCGACGAUCUCCCAUCAUUUGGCUACCAUAAGCGCCACCACUUGCCCCUGCUGUAGAAUUCAAAAAAAGUUCGGCAUAGCUGUGAUCGUAAGCACCCCCACUUGUUCCUGCAGUAGAAUUUAAGAAGAGCAACAGAGGAUUGAGCAUCA
B5: chr16:46708560:46708561:-_ENSG00000069329_ENST00000568784|perfect_dup|motif|central (ssRNA)
RNA: GGGAGUUCUACAGUCCGACGAUCAAAAAGUUUAAUCUCAGCUGGAAUUCCGGGUCCAUCUUCACGAUGAGCAAAUAAAGCGGAUCUGUCAAUUAAAGCAAUGAUUAUGUUUUUCACAUUUACAUUUUGGUGUAAUUCAGCACACAACAGAGGAUUGAGCAUCA
B6: 93591217_93594293_1026_CDS_ENSMUSG00000058013_ENSMUST00000074733|mouse|control|control (ssRNA)
RNA: GGGAGUUCUACAGUCCGACGAUCUUCGUAGGUCUCCUGAAGACUGAAGGGCUUGCUGUCGGGGUCCGUGUCCUUGAAGCCCAUCUCCUCAAGCUUGCAGCGCCGAUACAACUCGUAGUGGCGAGUGUGCGUCUGCUCUCGCAGCAACAGAGGAUUGAGCAUCA
B7: chr17:57816259:57816260:+_ENSG00000062716_ENST00000262291|hu_hu|FALSE|FALSE (ssRNA)
RNA: GGGAGUUCUACAGUCCGACGAUCCAGAUAAAGCAGAAAGGUGUGCAGCCCUGUUCCAAGCCCAACAGAAGACAAAAUUCCUAAGCCUAUCCAGUAGGCAUACAAAAGAAACUGUUUCUCUAUACGUUGCACAUACUGUUGAUGCAACAGAGGAUUGAGCAUCA
B8: chr18:56819859:56819860:+_ENSG00000166562_ENST00000588875|hu_mus|hu_hu_hu_mus_True|8_38 (ssRNA)
RNA: GGGAGUUCUACAGUCCGACGAUCAACCUUGAUUACUCUGUGAACUAUCGGAAUGUCUCUUCCUUCAACCUUAAAAACAACUAUUUCACCAGCUCUGAUUGGGUCUUCCCGGAAAUUCGUGAGGAACAGGAGGUCUCCUCUGUGCAACAGAGGAUUGAGCAUCA
B9: 152020827_152021121_235_CDS_ENSMUSG00000025437_ENSMUST00000117492|mouse|control|control (ssRNA)
RNA: GGGAGUUCUACAGUCCGACGAUCCUGACAAGCGCCGAGAGAUUUCUGUAUCAAGUCCUCUUUCGUUAUUUCACCAACUGAAUCCAAAUGUGGACAAUGAUUUCGAAAAGUCGUCAUUUUCUUACAGUUUUCCUUCUCUUUCUCCAACAGAGGAUUGAGCAUCA
B10: chr2:47387770:47387771:-_ENSG00000143933_ENST00000272298|hu_mus|hu_hu_hu_mus_True|28_38 (ssRNA)
RNA: GGGAGUUCUACAGUCCGACGAUCAAGGUUUAAGGACAAUGACAGUAAGAUAAGGGAAGAAAACAUGGAGGAAUGAAGUCCUAAUUACUAUACAUGCAUAUUUUUUUGACAGUAGGGGGGGGAACCUUUUACAGAUAAGUUACACAACAGAGGAUUGAGCAUCA
B11: chr1:39494447:39494448:+_ENSG00000168653_ENST00000372967|hu_mus|hu_hu_hu_mus_False|38_88 (ssRNA)
RNA: GGGAGUUCUACAGUCCGACGAUCGCACCGAGCGGCGUUCUUAUAGGGCUGUUCACCGCUUAGGAACAUAAAGUGCCGGUCCAGGCUGAUGCCCAGCCUUUUCUGGAUGUCAAGGAAAGGCAUGGCUCUGCAGUGCCCUUGUCACAACAGAGGAUUGAGCAUCA
B12: chr12:105536279:105536280:+_ENSG00000136051_ENST00000332180|hu_mus|hu_hu_hu_mus_True|8_8 (ssRNA)
RNA: GGGAGUUCUACAGUCCGACGAUCAGCACUGAACAUGUAAUGUAAUCUGGCUGCAUCGACAGCAUUUUCAUAUACAUCAUCUAAAUAAAUCGGGAAGACAGCGCGAUGCCAGUAUAAAAAACAGCAGUCACAUUGUGCUUGGACCAACAGAGGAUUGAGCAUCA
B13: chr4:132324321:132324322:+_ENSMUSG00000028884_ENSMUST00000102561|mus_hu|FALSE|FALSE (ssRNA)
RNA: GGGAGUUCUACAGUCCGACGAUCACAUCUUGGUCACGAUUCUCCGCAAAGAGGCCGAGAAGGUGCGGGUCUGGGGGAAUAGCGGAAAACCACAGAACGCGGCCGCCACUGCGCCGCUCUGGCUACUUUUCUCUGGCACCACAACAACAGAGGAUUGAGCAUCA
B14: chr1:58468927:58468928:-_ENSMUSG00000026034_ENSMUST00000148330|mus_mus|mus_mus_mus_hu_False|38_88 (ssRNA)
RNA: GGGAGUUCUACAGUCCGACGAUCAAUUACUGAAAAAGAUGUUCAUUUAUUUGGUUUUGUACUUAAUGAACCAAAUUACCCAAACAAAAUAAACAUGUUUACAAAUUAAUGUUAAGAAUUUACAAAGCUGUACAAAAUAACUUACAACAGAGGAUUGAGCAUCA

target: T1, UNK ZnF1-3; assay: nsRBNS (natural sequence RNA bind-n-seq); RBNS binding buffer (assumed for nsRBNS): 25 mM Tris pH 7.5, 150 mM KCl, 3 mM MgCl2, 0.01% Triton X-100, 500 ug/ml BSA, 20 U/ml SUPERase-In, 4 C; UNK is unkempt and MSI1 is Musashi-1; names of the RNAs are library labels; protein concentration not given here; high values mean tight binding

Binder | binding signal
B1 | 1.71 enrichment R
B2 | 1.23 enrichment R
B3 | 0.744 enrichment R
B4 | 2.17 enrichment R
B5 | 1.34 enrichment R
B6 | 0.625 enrichment R
B7 | 1.22 enrichment R
B8 | 0.718 enrichment R
B9 | 0.496 enrichment R
B10 | 1.82 enrichment R
B11 | 0.845 enrichment R
B12 | 2.97 enrichment R
B13 | 1.16 enrichment R
B14 | 0.362 enrichment R
